The other results are listed elsewhere or left out.
Biological target: T1, MBP-FoxP1dN (Mus musculus, UniProt P58462 326-579)
T1 sequence: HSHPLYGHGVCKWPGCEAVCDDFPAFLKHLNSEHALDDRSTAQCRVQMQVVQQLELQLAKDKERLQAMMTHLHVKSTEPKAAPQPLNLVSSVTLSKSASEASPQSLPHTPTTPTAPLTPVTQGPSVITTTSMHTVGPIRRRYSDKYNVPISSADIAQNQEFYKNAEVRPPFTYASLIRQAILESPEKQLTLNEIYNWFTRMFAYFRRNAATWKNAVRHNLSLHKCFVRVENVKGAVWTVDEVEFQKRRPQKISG
Assay: PD-seq (MBP pull-down with sequencing); 20 mM Tris-HCl pH 7.5, 100 mM NaCl, 1.5 mM MgCl2, 0.4 uM protein, 0.1 uM dsDNA library, 30 min, room temperature, amylose pull-down; high values mean tight binding
Conditions: protein: recombinant; tags: His6-MBP; chain copies: 2; dsDNA, one strand shown
Method in brief: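 His6-MBP-tagged mouse FoxP3 or FoxP1 fragment lacking the N-terminus, expressed in E. coli, was mixed at 0.4 µM with 0.1 µM Klenow-filled double-stranded degenerate DNA library. Incubation was 30 min at room temperature in Tris pH 7.5 buffer with NaCl and MgCl2. Complexes were caught on amylose resin and washed three times; DNA was released with proteinase K, PCR-barcoded and Illumina-sequenced. Binding is reads-per-million enrichment, pull-down over input, with replicates pooled.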

Point of comparison: “GATGATTGTTCTCCCAGCTGATGAATTTTTCAGATCGAGTAAACAAATTTTCCTAATCTTTCTGTTCAAGCGCCATCTAC”, binding signal 0.882 RPM ratio (pull-down/input). Against it:
- GATGATTGTTCTCCCAGCTGATGAATTTTTACTATCGAGTAAACAAATTTTCCTAATCTTTCTGTTCAAGCGCCATCTAC — higher, 1.1 RPM ratio (pull-down/input)
- GATGATTGTTCTCCCAGCTGATGAATTACATAAGTCGAGTAAACAAATTTTCCTAATCTTTCTGTTCAAGCGCCATCTAC — higher, 1.23 RPM ratio (pull-down/input)
- GATGATTGTTCTCCCAGCTGATGAATTAGTCCAGTCGAGTAAACAAATTTTCCTAATCTTTCTGTTCAAGCGCCATCTAC — lower, 0.824 RPM ratio (pull-down/input)
- GATGATTGTTCTCCCAGCTGATGAATTGCGCTTCTCGAGTAAACAAATTTTCCTAATCTTTCTGTTCAAGCGCCATCTAC — higher, 0.999 RPM ratio (pull-down/input)
- GATGATTGTTCTCCCAGCTGATGAATTCCCTCCGTCGAGTAAACAAATTTTCCTAATCTTTCTGTTCAAGCGCCATCTAC — lower, 0.836 RPM ratio (pull-down/input)
- GATGATTGTTCTCCCAGCTGATGAATTGCCTTTATCGAGTAAACAAATTTTCCTAATCTTTCTGTTCAAGCGCCATCTAC — higher, 1.12 RPM ratio (pull-down/input)
- GATGATTGTTCTCCCAGCTGATGAATTTCAGTGCTCGAGTAAACAAATTTTCCTAATCTTTCTGTTCAAGCGCCATCTAC — lower, 0.817 RPM ratio (pull-down/input)
- GATGATTGTTCTCCCAGCTGATGAATTACGAATCTCGAGTAAACAAATTTTCCTAATCTTTCTGTTCAAGCGCCATCTAC — higher, 1.03 RPM ratio (pull-down/input)
- GATGATTGTTCTCCCAGCTGATGAATTTCTAGCTTCGAGTAAACAAATTTTCCTAATCTTTCTGTTCAAGCGCCATCTAC — higher, 0.913 RPM ratio (pull-down/input)
- GATGATTGTTCTCCCAGCTGATGAATTCGGAGGATCGAGTAAACAAATTTTCCTAATCTTTCTGTTCAAGCGCCATCTAC — lower, 0.831 RPM ratio (pull-down/input)
- GATGATTGTTCTCCCAGCTGATGAATTAAAAGCCTCGAGTAAACAAATTTTCCTAATCTTTCTGTTCAAGCGCCATCTAC — higher, 0.944 RPM ratio (pull-down/input)
- GATGATTGTTCTCCCAGCTGATGAATTTTTCTATTCGAGTAAACAAATTTTCCTAATCTTTCTGTTCAAGCGCCATCTAC — higher, 0.984 RPM ratio (pull-down/input)
- GATGATTGTTCTCCCAGCTGATGAATTAAATATCTCGAGTAAACAAATTTTCCTAATCTTTCTGTTCAAGCGCCATCTAC — higher, 1.01 RPM ratio (pull-down/input)
- GATGATTGTTCTCCCAGCTGATGAATTAATAACCTCGAGTAAACAAATTTTCCTAATCTTTCTGTTCAAGCGCCATCTAC — higher, 1 RPM ratio (pull-down/input)
- GATGATTGTTCTCCCAGCTGATGAATTGGCATTTTCGAGTAAACAAATTTTCCTAATCTTTCTGTTCAAGCGCCATCTAC — higher, 1.13 RPM ratio (pull-down/input)
- GATGATTGTTCTCCCAGCTGATGAATTCTGTTACTCGAGTAAACAAATTTTCCTAATCTTTCTGTTCAAGCGCCATCTAC — higher, 1.1 RPM ratio (pull-down/input)
- GATGATTGTTCTCCCAGCTGATGAATTCCAGCTCTCGAGTAAACAAATTTTCCTAATCTTTCTGTTCAAGCGCCATCTAC — lower, 0.704 RPM ratio (pull-down/input)
- GATGATTGTTCTCCCAGCTGATGAATTATATTCCTCGAGTAAACAAATTTTCCTAATCTTTCTGTTCAAGCGCCATCTAC — higher, 0.968 RPM ratio (pull-down/input)
- GATGATTGTTCTCCCAGCTGATGAATTGCACTGGTCGAGTAAACAAATTTTCCTAATCTTTCTGTTCAAGCGCCATCTAC — higher, 1.09 RPM ratio (pull-down/input)
- GATGATTGTTCTCCCAGCTGATGAATTGTGCCCCTCGAGTAAACAAATTTTCCTAATCTTTCTGTTCAAGCGCCATCTAC — higher, 0.989 RPM ratio (pull-down/input)
- GATGATTGTTCTCCCAGCTGATGAATTAAACCATTCGAGTAAACAAATTTTCCTAATCTTTCTGTTCAAGCGCCATCTAC — higher, 0.919 RPM ratio (pull-down/input)
- GATGATTGTTCTCCCAGCTGATGAATTGCGCGATTCGAGTAAACAAATTTTCCTAATCTTTCTGTTCAAGCGCCATCTAC — higher, 1.09 RPM ratio (pull-down/input)
- GATGATTGTTCTCCCAGCTGATGAATTGCTAGGTTCGAGTAAACAAATTTTCCTAATCTTTCTGTTCAAGCGCCATCTAC — higher, 0.944 RPM ratio (pull-down/input)
- GATGATTGTTCTCCCAGCTGATGAATTATAATTATCGAGTAAACAAATTTTCCTAATCTTTCTGTTCAAGCGCCATCTAC — higher, 1.37 RPM ratio (pull-down/input)
- GATGATTGTTCTCCCAGCTGATGAATTATAAAAATCGAGTAAACAAATTTTCCTAATCTTTCTGTTCAAGCGCCATCTAC — higher, 1.08 RPM ratio (pull-down/input)
- GATGATTGTTCTCCCAGCTGATGAATTGAAAAATTCGAGTAAACAAATTTTCCTAATCTTTCTGTTCAAGCGCCATCTAC — lower, 0.848 RPM ratio (pull-down/input)
- GATGATTGTTCTCCCAGCTGATGAATTAGGGTGATCGAGTAAACAAATTTTCCTAATCTTTCTGTTCAAGCGCCATCTAC — lower, 0.866 RPM ratio (pull-down/input)
- GATGATTGTTCTCCCAGCTGATGAATTCGCACGATCGAGTAAACAAATTTTCCTAATCTTTCTGTTCAAGCGCCATCTAC — higher, 0.935 RPM ratio (pull-down/input)
- GATGATTGTTCTCCCAGCTGATGAATTGTCGGACTCGAGTAAACAAATTTTCCTAATCTTTCTGTTCAAGCGCCATCTAC — higher, 0.885 RPM ratio (pull-down/input)
- GATGATTGTTCTCCCAGCTGATGAATTAAGCAAATCGAGTAAACAAATTTTCCTAATCTTTCTGTTCAAGCGCCATCTAC — higher, 1.18 RPM ratio (pull-down/input)
- GATGATTGTTCTCCCAGCTGATGAATTATGCTATTCGAGTAAACAAATTTTCCTAATCTTTCTGTTCAAGCGCCATCTAC — higher, 1.23 RPM ratio (pull-down/input)
- GATGATTGTTCTCCCAGCTGATGAATTGACGACCTCGAGTAAACAAATTTTCCTAATCTTTCTGTTCAAGCGCCATCTAC — higher, 1.02 RPM ratio (pull-down/input)
- GATGATTGTTCTCCCAGCTGATGAATTACAGTTCTCGAGTAAACAAATTTTCCTAATCTTTCTGTTCAAGCGCCATCTAC — higher, 1.05 RPM ratio (pull-down/input)
- GATGATTGTTCTCCCAGCTGATGAATTATAGTTTTCGAGTAAACAAATTTTCCTAATCTTTCTGTTCAAGCGCCATCTAC — higher, 1.26 RPM ratio (pull-down/input)
- GATGATTGTTCTCCCAGCTGATGAATTATTCAAGTCGAGTAAACAAATTTTCCTAATCTTTCTGTTCAAGCGCCATCTAC — higher, 0.991 RPM ratio (pull-down/input)
- GATGATTGTTCTCCCAGCTGATGAATTTAGCGGCTCGAGTAAACAAATTTTCCTAATCTTTCTGTTCAAGCGCCATCTAC — higher, 0.898 RPM ratio (pull-down/input)
- GATGATTGTTCTCCCAGCTGATGAATTGTCTTATTCGAGTAAACAAATTTTCCTAATCTTTCTGTTCAAGCGCCATCTAC — higher, 1.18 RPM ratio (pull-down/input)
- GATGATTGTTCTCCCAGCTGATGAATTAAACGGATCGAGTAAACAAATTTTCCTAATCTTTCTGTTCAAGCGCCATCTAC — lower, 0.841 RPM ratio (pull-down/input)
- GATGATTGTTCTCCCAGCTGATGAATTAGATGTGTCGAGTAAACAAATTTTCCTAATCTTTCTGTTCAAGCGCCATCTAC — higher, 1.01 RPM ratio (pull-down/input)
- GATGATTGTTCTCCCAGCTGATGAATTTTAGTGATCGAGTAAACAAATTTTCCTAATCTTTCTGTTCAAGCGCCATCTAC — higher, 0.914 RPM ratio (pull-down/input)
- GATGATTGTTCTCCCAGCTGATGAATTGTTGCTGTCGAGTAAACAAATTTTCCTAATCTTTCTGTTCAAGCGCCATCTAC — higher, 2 RPM ratio (pull-down/input)
- GATGATTGTTCTCCCAGCTGATGAATTCGGACTCTCGAGTAAACAAATTTTCCTAATCTTTCTGTTCAAGCGCCATCTAC — lower, 0.854 RPM ratio (pull-down/input)
- GATGATTGTTCTCCCAGCTGATGAATTTTAAGTCTCGAGTAAACAAATTTTCCTAATCTTTCTGTTCAAGCGCCATCTAC — lower, 0.861 RPM ratio (pull-down/input)
- GATGATTGTTCTCCCAGCTGATGAATTCTAGTTCTCGAGTAAACAAATTTTCCTAATCTTTCTGTTCAAGCGCCATCTAC — lower, 0.825 RPM ratio (pull-down/input)
- GATGATTGTTCTCCCAGCTGATGAATTGTTGGTATCGAGTAAACAAATTTTCCTAATCTTTCTGTTCAAGCGCCATCTAC — higher, 1.92 RPM ratio (pull-down/input)
- GATGATTGTTCTCCCAGCTGATGAATTAAGGGCGTCGAGTAAACAAATTTTCCTAATCTTTCTGTTCAAGCGCCATCTAC — lower, 0.85 RPM ratio (pull-down/input)
- GATGATTGTTCTCCCAGCTGATGAATTGGGGCTCTCGAGTAAACAAATTTTCCTAATCTTTCTGTTCAAGCGCCATCTAC — lower, 0.79 RPM ratio (pull-down/input)
- GATGATTGTTCTCCCAGCTGATGAATTTCGACTGTCGAGTAAACAAATTTTCCTAATCTTTCTGTTCAAGCGCCATCTAC — lower, 0.795 RPM ratio (pull-down/input)
- GATGATTGTTCTCCCAGCTGATGAATTGCATTGGTCGAGTAAACAAATTTTCCTAATCTTTCTGTTCAAGCGCCATCTAC — higher, 1.15 RPM ratio (pull-down/input)
- GATGATTGTTCTCCCAGCTGATGAATTCTTCTAATCGAGTAAACAAATTTTCCTAATCTTTCTGTTCAAGCGCCATCTAC — higher, 1.02 RPM ratio (pull-down/input)
- GATGATTGTTCTCCCAGCTGATGAATTGGGGTGATCGAGTAAACAAATTTTCCTAATCTTTCTGTTCAAGCGCCATCTAC — higher, 0.894 RPM ratio (pull-down/input)
- GATGATTGTTCTCCCAGCTGATGAATTCACCCTTTCGAGTAAACAAATTTTCCTAATCTTTCTGTTCAAGCGCCATCTAC — higher, 0.883 RPM ratio (pull-down/input)
- GATGATTGTTCTCCCAGCTGATGAATTAGTAGTGTCGAGTAAACAAATTTTCCTAATCTTTCTGTTCAAGCGCCATCTAC — higher, 1 RPM ratio (pull-down/input)
- GATGATTGTTCTCCCAGCTGATGAATTGAGACAGTCGAGTAAACAAATTTTCCTAATCTTTCTGTTCAAGCGCCATCTAC — higher, 0.909 RPM ratio (pull-down/input)
- GATGATTGTTCTCCCAGCTGATGAATTTTGCTTGTCGAGTAAACAAATTTTCCTAATCTTTCTGTTCAAGCGCCATCTAC — higher, 1.65 RPM ratio (pull-down/input)
- GATGATTGTTCTCCCAGCTGATGAATTTACTACTTCGAGTAAACAAATTTTCCTAATCTTTCTGTTCAAGCGCCATCTAC — higher, 1.41 RPM ratio (pull-down/input)
- GATGATTGTTCTCCCAGCTGATGAATTCGTGGGATCGAGTAAACAAATTTTCCTAATCTTTCTGTTCAAGCGCCATCTAC — lower, 0.84 RPM ratio (pull-down/input)
- GATGATTGTTCTCCCAGCTGATGAATTTTTCGGTTCGAGTAAACAAATTTTCCTAATCTTTCTGTTCAAGCGCCATCTAC — higher, 1.02 RPM ratio (pull-down/input)
- GATGATTGTTCTCCCAGCTGATGAATTAGCCTTTTCGAGTAAACAAATTTTCCTAATCTTTCTGTTCAAGCGCCATCTAC — higher, 1.03 RPM ratio (pull-down/input)
- GATGATTGTTCTCCCAGCTGATGAATTCCCAGTCTCGAGTAAACAAATTTTCCTAATCTTTCTGTTCAAGCGCCATCTAC — lower, 0.749 RPM ratio (pull-down/input)
- GATGATTGTTCTCCCAGCTGATGAATTCGGCGACTCGAGTAAACAAATTTTCCTAATCTTTCTGTTCAAGCGCCATCTAC — lower, 0.824 RPM ratio (pull-down/input)
- GATGATTGTTCTCCCAGCTGATGAATTGTTGAGCTCGAGTAAACAAATTTTCCTAATCTTTCTGTTCAAGCGCCATCTAC — higher, 1.02 RPM ratio (pull-down/input)

From paper PMC12820563, “FoxP3 forms a head-to-head dimer in vivo and stabilizes its multimerization on adjacent microsatellites”
